Measured values: the supplement of paper PMC10369915
The list shows a part of the results. Cut-off read from the data, not from the text of the source: active = 3.2 or more and inactive = the rest. Only a few entries rise above the background.

Each binder was assayed against SHP2 C-SH2 domain E139D (assay: enrichment score (SH2-bound / input frequency) (ratio); bacterial display of known human phosphotyrosine sites (pTyr-Var adds point mutants) read by sequencing; higher = stronger binding; tyrosines were phosphorylated by kinases first). Conditions: peptide library: pTyr-Var.
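Note: displayed peptides selected on beads carrying the immobilized SH2 domain, with library peptides lacking any tyrosine serving as negative controls.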

Binder	enrichment score
ADTETYLLEKS [MYH7_Y266_I263T]	inactive: 0.654
KVGNEYITKGQ [MYH7_Y410_V411I]	inactive: 0.844
GIFEDYVEGLR [MYL6_Y89_T85I_YF]	inactive: 1.04
KVVNEYVTKGQ [MYH7_Y410_G407V]	inactive: 0.733
YFVVEYRNQKP [MUC17_Y4332_D4334N]	inactive: 1.97
SRKSEYLLPVA [MYLK_Y611]	inactive: 0.769
TGNGYYFRVFS [MYBPC3_Y1136_I1131T]	inactive: 0.838
EPAVLYNLKER [MYH7_Y103_D107E]	inactive: 1.73
QMQNPYSSHSS [MUC13_Y501_R503S]	inactive: 0.538
ADKAAYLQSMN [MYH2_Y389_L393M]	inactive: 0.632
RSRSSYTHGLN [MYCT1_Y116]	inactive: 0.304
FSLIHYASIVD [MYH7_Y582_G584S]	active: 7.7
NYDLDYDSVQP [MYC_Y16]	inactive: 0.843
RVAFQYGVTDL [MYBPC3_Y340_I336V]	inactive: 1.04
ADKAAYLQNLN [MYH1_Y389]	inactive: 0.46
ACLSLYGGFVE [MVD_Y164_R161L]	inactive: 0.841
RIAFQYGDTDL [MYBPC3_Y340_V342D]	inactive: 1
PFQGAYLKINK [MYO1B_Y967_E969K]	inactive: 1.18

The binders below were run against SHP2 C-SH2 domain wild-type in the same assay as above. Conditions: peptide library: pTyr-Var.

Binder	enrichment score
ADTETYLLEKS [MYH7_Y266_I263T]	inactive: 0.676
KVGNEYITKGQ [MYH7_Y410_V411I]	inactive: 0.82
GIFEDYVEGLR [MYL6_Y89_T85I_YF]	inactive: 1
KVVNEYVTKGQ [MYH7_Y410_G407V]	inactive: 0.736
YFVVEYRNQKP [MUC17_Y4332_D4334N]	inactive: 2.72
SRKSEYLLPVA [MYLK_Y611]	inactive: 0.723
TGNGYYFRVFS [MYBPC3_Y1136_I1131T]	inactive: 1.05
EPAVLYNLKER [MYH7_Y103_D107E]	inactive: 1.49
QMQNPYSSHSS [MUC13_Y501_R503S]	inactive: 0.62
ADKAAYLQSMN [MYH2_Y389_L393M]	inactive: 0.736
RSRSSYTHGLN [MYCT1_Y116]	inactive: 0.216
FSLIHYASIVD [MYH7_Y582_G584S]	active: 7.88
NYDLDYDSVQP [MYC_Y16]	inactive: 0.748
RVAFQYGVTDL [MYBPC3_Y340_I336V]	inactive: 0.838
ADKAAYLQNLN [MYH1_Y389]	inactive: 0.636
ACLSLYGGFVE [MVD_Y164_R161L]	inactive: 1.05
RIAFQYGDTDL [MYBPC3_Y340_V342D]	inactive: 0.768
PFQGAYLKINK [MYO1B_Y967_E969K]	inactive: 1.68

What follows are binders tested against SHP2 N-SH2 domain L43F in the same assay as above. Conditions: peptide library: pTyr-Var.

Binder	enrichment score
ADTETYLLEKS [MYH7_Y266_I263T]	inactive: 0.699
KVGNEYITKGQ [MYH7_Y410_V411I]	inactive: 0.768
GIFEDYVEGLR [MYL6_Y89_T85I_YF]	inactive: 1.07
KVVNEYVTKGQ [MYH7_Y410_G407V]	inactive: 0.733
YFVVEYRNQKP [MUC17_Y4332_D4334N]	inactive: 2.04
SRKSEYLLPVA [MYLK_Y611]	inactive: 0.836
TGNGYYFRVFS [MYBPC3_Y1136_I1131T]	inactive: 0.587
EPAVLYNLKER [MYH7_Y103_D107E]	inactive: 1.56
QMQNPYSSHSS [MUC13_Y501_R503S]	inactive: 0.57
ADKAAYLQSMN [MYH2_Y389_L393M]	inactive: 0.618
RSRSSYTHGLN [MYCT1_Y116]	inactive: 0.383
FSLIHYASIVD [MYH7_Y582_G584S]	active: 4.3
NYDLDYDSVQP [MYC_Y16]	inactive: 0.682
RVAFQYGVTDL [MYBPC3_Y340_I336V]	inactive: 0.73
ADKAAYLQNLN [MYH1_Y389]	inactive: 0.485
ACLSLYGGFVE [MVD_Y164_R161L]	inactive: 0.752
RIAFQYGDTDL [MYBPC3_Y340_V342D]	inactive: 1.04
PFQGAYLKINK [MYO1B_Y967_E969K]	inactive: 1.36

Each binder was assayed against SHP2 N-SH2 domain T42A in the same assay as above. Conditions: peptide library: pTyr-Var.

Binder	enrichment score
ADTETYLLEKS [MYH7_Y266_I263T]	inactive: 0.546
KVGNEYITKGQ [MYH7_Y410_V411I]	inactive: 0.889
GIFEDYVEGLR [MYL6_Y89_T85I_YF]	inactive: 0.854
KVVNEYVTKGQ [MYH7_Y410_G407V]	inactive: 0.65
YFVVEYRNQKP [MUC17_Y4332_D4334N]	inactive: 2.21
SRKSEYLLPVA [MYLK_Y611]	inactive: 0.697
TGNGYYFRVFS [MYBPC3_Y1136_I1131T]	inactive: 0.883
EPAVLYNLKER [MYH7_Y103_D107E]	inactive: 0.942
QMQNPYSSHSS [MUC13_Y501_R503S]	inactive: 0.503
ADKAAYLQSMN [MYH2_Y389_L393M]	inactive: 0.526
RSRSSYTHGLN [MYCT1_Y116]	inactive: 0.246
FSLIHYASIVD [MYH7_Y582_G584S]	active: 8.31
NYDLDYDSVQP [MYC_Y16]	inactive: 0.56
RVAFQYGVTDL [MYBPC3_Y340_I336V]	inactive: 0.735
ADKAAYLQNLN [MYH1_Y389]	inactive: 0.618
ACLSLYGGFVE [MVD_Y164_R161L]	inactive: 0.771
RIAFQYGDTDL [MYBPC3_Y340_V342D]	inactive: 0.823
PFQGAYLKINK [MYO1B_Y967_E969K]	inactive: 1.36

Each binder was assayed against SHP2 N-SH2 domain T52S in the same assay as above. Conditions: peptide library: pTyr-Var.

Binder	enrichment score
ADTETYLLEKS [MYH7_Y266_I263T]	inactive: 0.546
KVGNEYITKGQ [MYH7_Y410_V411I]	inactive: 0.714
GIFEDYVEGLR [MYL6_Y89_T85I_YF]	inactive: 0.862
KVVNEYVTKGQ [MYH7_Y410_G407V]	inactive: 0.744
YFVVEYRNQKP [MUC17_Y4332_D4334N]	inactive: 2.31
SRKSEYLLPVA [MYLK_Y611]	inactive: 1.11
TGNGYYFRVFS [MYBPC3_Y1136_I1131T]	inactive: 0.681
EPAVLYNLKER [MYH7_Y103_D107E]	inactive: 1.72
QMQNPYSSHSS [MUC13_Y501_R503S]	inactive: 0.425
ADKAAYLQSMN [MYH2_Y389_L393M]	inactive: 0.601
RSRSSYTHGLN [MYCT1_Y116]	inactive: 0.311
FSLIHYASIVD [MYH7_Y582_G584S]	active: 4.9
NYDLDYDSVQP [MYC_Y16]	inactive: 0.605
RVAFQYGVTDL [MYBPC3_Y340_I336V]	inactive: 0.913
ADKAAYLQNLN [MYH1_Y389]	inactive: 0.849
ACLSLYGGFVE [MVD_Y164_R161L]	inactive: 0.554
RIAFQYGDTDL [MYBPC3_Y340_V342D]	inactive: 1.02
PFQGAYLKINK [MYO1B_Y967_E969K]	inactive: 1.11

These binders were tested against SHP2 N-SH2 domain wild-type in the same assay as above. Conditions: peptide library: pTyr-Var.

Binder	enrichment score
ADTETYLLEKS [MYH7_Y266_I263T]	inactive: 0.729
KVGNEYITKGQ [MYH7_Y410_V411I]	inactive: 0.932
GIFEDYVEGLR [MYL6_Y89_T85I_YF]	inactive: 0.841
KVVNEYVTKGQ [MYH7_Y410_G407V]	inactive: 0.836
YFVVEYRNQKP [MUC17_Y4332_D4334N]	inactive: 1.94
SRKSEYLLPVA [MYLK_Y611]	inactive: 0.807
TGNGYYFRVFS [MYBPC3_Y1136_I1131T]	inactive: 0.931
EPAVLYNLKER [MYH7_Y103_D107E]	inactive: 1.58
QMQNPYSSHSS [MUC13_Y501_R503S]	inactive: 0.699
ADKAAYLQSMN [MYH2_Y389_L393M]	inactive: 0.693
RSRSSYTHGLN [MYCT1_Y116]	inactive: 0.313
FSLIHYASIVD [MYH7_Y582_G584S]	inactive: 2.16
NYDLDYDSVQP [MYC_Y16]	inactive: 0.75
RVAFQYGVTDL [MYBPC3_Y340_I336V]	inactive: 0.969
ADKAAYLQNLN [MYH1_Y389]	inactive: 0.534
ACLSLYGGFVE [MVD_Y164_R161L]	inactive: 1.16
RIAFQYGDTDL [MYBPC3_Y340_V342D]	inactive: 0.959
PFQGAYLKINK [MYO1B_Y967_E969K]	inactive: 1.28
